Test results from PubChem BioAssay AID2147 (National Center for Advancing Translational Sciences (NCATS), 2009).
Hit rate of the full screen: of about 230,000 compounds, about 3,600 (1.6%) were called active. Inconclusive results, whose numbers are uncertain, are shown with a selection of clear calls. Calls follow the shape of the dose curve; as a rule, active = well fitted inhibition curve with a large enough effect (not every such curve was filed as active); inconclusive = small, poorly fitted or top-dose-only effect, or another doubt; inactive = no such curve, though single readings can be large or run the other way. A potency beside an inconclusive call is a rough fit, not a confirmed value.

These compounds were tested against Lysine-specific demethylase 4E (Homo sapiens) (UniProt B2RXH2) (assay: qHTS Assay for Inhibitors of Human Jumonji Domain Containing 2E (JMJD2E)). Conditions: JMJD2E catalytic domain, FDH-coupled NADH fluorescence (FDH is formaldehyde dehydrogenase); series mostly up to 57.1 µM.
UniProt B2RXH2, sequence (B2RXH2 whole entry, looked up, the tested form may be a part): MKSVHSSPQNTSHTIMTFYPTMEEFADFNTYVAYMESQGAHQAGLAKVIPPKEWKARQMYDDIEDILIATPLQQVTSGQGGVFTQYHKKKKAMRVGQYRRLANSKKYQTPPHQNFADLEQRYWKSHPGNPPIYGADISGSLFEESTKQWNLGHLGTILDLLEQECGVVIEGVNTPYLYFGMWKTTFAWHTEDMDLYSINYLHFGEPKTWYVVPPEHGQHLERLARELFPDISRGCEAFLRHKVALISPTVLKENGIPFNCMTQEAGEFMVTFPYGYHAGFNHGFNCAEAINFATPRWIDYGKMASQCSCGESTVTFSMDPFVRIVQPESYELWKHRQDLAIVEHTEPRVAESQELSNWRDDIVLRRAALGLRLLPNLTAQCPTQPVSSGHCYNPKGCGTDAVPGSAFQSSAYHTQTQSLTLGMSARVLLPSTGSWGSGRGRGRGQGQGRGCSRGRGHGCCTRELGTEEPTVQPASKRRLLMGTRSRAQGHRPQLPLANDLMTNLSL
Also: nearly all actives have a fitted effect of over 50% in size.
Potency is read from the fitted curve at half-maximal effect; tags tell the direction and shape of the fitted curve.

Structure (SMILES) | Potency
Cc1nc(NC2CCCCC2)c2nc(-c3ccccc3)n(CCCN3CCCCC3C)c2n1 (centres undefined) | inconclusive: 31.6 µM [inhibitor, partial curve]
COc1ccc(-c2nc3ncnn3cc2C)cc1F | inconclusive: 28.2 µM [inhibitor, partial curve]
O=C(/C=C/c1ccccc1)Oc1cccc2cccnc12 | inactive
COc1cc2cc(Oc3ccc4ccc(=O)oc4c3)c(=O)oc2cc1OC(=O)/C=C/c1ccccc1 | inconclusive: 22.4 µM [inhibitor, single point]
CCOc1ccccc1OCc1nn2c(COc3ccccc3)nnc2s1 | inactive
CCCNC(=O)C1CCN(c2ccc(S(=O)(=O)N3CCOCC3)cc2Cl)CC1 | inactive
Cc1ccc(-c2csc(NC(=O)c3ccc(-c4ccccc4)cc3)n2)o1 | inconclusive: 25.1 µM [inhibitor, partial curve]
O=C(c1ccco1)N1CCN(Cc2nc(Cc3ccccc3)no2)CC1 | inactive
CCC(CC)C(=O)Nc1ccc(Sc2ccc([N+](=O)[O-])cc2)cc1 | inactive
Cc1cccc(C2=N/C(=C\c3cccs3)C(=O)O2)c1 | inactive
O=C1c2oc3ccc(F)cc3c(=O)c2C(c2ccncc2)N1CCN1CCOCC1 (centres undefined) | inconclusive: 39.8 µM [inhibitor, single point]
CCc1ccc(NC(=O)C(=O)NCCN2CCN(Cc3ccc([N+](=O)[O-])cc3)CC2)cc1 | inactive
CCOP(=O)(OCC)c1nc(-c2ccc(OC)cc2)oc1N1CCOCC1 | inconclusive: 25.1 µM [inhibitor, partial curve]
Nc1ccccc1C(=O)NCc1ccc(Cl)cc1 | inconclusive: 31.6 µM [inhibitor, partial curve]
CCN1C(=O)NC2=C(C(=O)c3ccccc32)C1c1ccccc1F (centres undefined) | inactive
O=C(NC(=S)Nn1cnnc1)c1ccccc1Br | inconclusive: 35.5 µM [inhibitor, single point]
CCc1cccc(NS(=O)(=O)c2ccc3c(c2)oc(=O)n3C)c1 | inactive
FC(F)(F)c1ccccc1NC(=S)NN=C1CCCCCC1 | inconclusive: 31.6 µM [inhibitor, single point]
CCOC(=O)N1CCN(CC(=O)Nc2ccc(C)c(Br)c2)CC1 | inconclusive: 35.5 µM [inhibitor, single point]
CN(C)c1ccc(/C=N/NC(=O)CNC(=O)c2ccc3c(c2)OCCO3)cc1 | inconclusive: 31.6 µM [inhibitor, partial curve]
CCOc1ccc(CNc2ccc3c(c2)nc(C)n3C)cc1 | inconclusive: 39.8 µM [inhibitor, single point]
Nc1c(NCCCN2CCOCC2)c2ccccc2oc1=O | inconclusive: 31.6 µM [inhibitor, partial curve]
COc1ccc(/C=C/C(=O)c2cc(Br)ccc(=O)c2O)cc1 | inconclusive: 35.5 µM [inhibitor, single point]
CCOc1cc(/C=N\NC(=O)c2ccc(NC(=O)C(C)(C)C)cc2)ccc1OC(=O)c1cccc(C)c1 | inconclusive: 35.5 µM [inhibitor, single point]
CC(C)NC(=O)NC(=O)COC(=O)/C=C/c1ccc2c(c1)OCO2 | inconclusive: 25.1 µM [inhibitor, partial curve]

Structure (SMILES) | Potency
S=c1[nH]nc(-c2ccco2)n1/N=C/c1ccc(Cl)cc1Cl | inactive
Cc1ccnc(NC(=O)c2cc(S(=O)(=O)N3CCCCC3)ccc2Cl)c1 | inconclusive: 28.2 µM [inhibitor, partial curve]
CCCc1cc(N2CCN(C(=O)c3ccco3)CC2)n2c(nc3ccccc32)c1C#N | inconclusive: 35.5 µM [inhibitor, partial curve]
O=C(CSc1nnc(-c2ccco2)o1)c1ccc([N+](=O)[O-])cc1 | inconclusive: 39.8 µM [inhibitor, single point]
CN(CC(=O)Nc1ccc(N2CCOCC2)cc1)Cc1cc(=O)n2ccsc2n1 | inconclusive: 20 µM [inhibitor, single point]
CCc1ccc(C2C3=C(CC(C)(C)CC3=O)Nc3c2c(=O)[nH]c2nc(C)nn32)cc1 (centres undefined) | inconclusive: 6.31 µM [inhibitor, single point]
CC(C)OC(=O)c1c(NC(=O)c2cnn3c2NC(c2ccccc2)CC3C(F)(F)F)sc2c1CCCC2 (centres undefined) | inconclusive: 2.24 µM [inhibitor, partial curve]
O=c1c2ccccc2oc2ccccc12 | inconclusive: 28.2 µM [inhibitor, partial curve]
O=C(NCCc1ccccc1)c1ccccc1NS(=O)(=O)N1CCCC1 | inconclusive: 25.1 µM [inhibitor, partial curve]
O=C(CC(c1ccco1)C1CCCCC1=O)c1ccco1 (centres undefined) | inactive
O=c1c2cn[nH]c2nc(SCc2cc(=O)n3cc(Br)ccc3n2)n1-c1ccc(Br)cc1 | inconclusive: 39.8 µM [inhibitor, single point]
Cc1ccc(S(=O)(=O)NCCNC(=O)N2CCOCC2)cc1 | inactive
c1ccc(C2=Nn3c(nnc3-c3ccco3)SC2)cc1 | inactive
COc1ccc(S(=O)(=O)N(c2onc(C)c2Cl)S(=O)(=O)c2ccc(OC)cc2)cc1 | inactive
Cc1c(O)c(CN2CCCC2)cc2c1oc(=O)c1ccccc12 | inactive
CSc1nc(=O)n2cccc(C)c2n1 | inconclusive: 39.8 µM [inhibitor, single point]
O=C(NCCc1ccccc1)C1CCN(S(=O)(=O)c2cccs2)CC1 | inactive
COc1cccc(CNC(=O)CCSCc2ccccc2F)c1 | inconclusive: 39.8 µM [inhibitor, single point]
O=C(Nc1ccc(F)cc1)N(CCCN1CCOCC1)Cc1cc2cc3c(cc2[nH]c1=O)OCO3 | inconclusive: 28.2 µM [inhibitor, partial curve]
CC1CCN(CCOc2ccc(Cl)c(Cl)c2)CC1 | inconclusive: 25.1 µM [inhibitor, single point]
CCc1ccc(C(=O)/C=C/Nc2ccc(S(=O)(=O)Nc3onc(C)c3C)cc2)cc1 | inactive
COCOc1ccc(OC)cc1C(=O)/C=C/c1ccc(OC)c(Br)c1 | inactive
O=C(NCc1ccccc1Cl)c1ccc[nH]1 | inactive
O=C(NC(=O)N1CCCC1)c1csnn1 | inactive
CCN(CC)C(=O)C1CCCN(Cc2ccccc2)C1 (centres undefined) | inconclusive: 31.6 µM [inhibitor, single point]

Structure (SMILES) | Potency
Cn1c(C(=O)NCc2ccccn2)cc2c(=O)n3ccccc3nc21 | inconclusive: 7.08 µM [inhibitor, partial curve]
O=C(O)c1cc(-c2ccc(/C=N/N3C(=O)C4C5C=CC(CC5)C4C3=O)o2)ccc1Cl (centres undefined) | inconclusive: 31.6 µM [inhibitor, partial curve]
N#C/C(=C\c1ccc(O)c(O)c1)C(=O)c1ccc(O)c(O)c1 | active: 2.51 µM
COc1ccc(F)cc1C(=O)C1CCCN(C(=O)Cc2c(C)noc2C)C1 (centres undefined) | inconclusive: 31.6 µM [inhibitor, single point]
COc1ccc(S(=O)(=O)N(C)CC(=O)Nc2ccc(C(F)(F)F)cc2)cc1Cl | inactive
COc1ccc(C2CC(c3ccccc3)=NN2c2ccc(Cl)c(C(=O)O)c2)cc1 (centres undefined) | inconclusive: 25.1 µM [inhibitor, partial curve]
CC(=O)NC(=S)Nc1ccc(NC(=O)COc2ccc(Cl)cc2)cc1 | inactive
CCC1(C(=O)OC)CCc2c(cc(OC)c3ccccc23)C1=O (centres undefined) | inconclusive: 28.2 µM [inhibitor, partial curve]
CCCC(=O)c1cc2c(cc1NC(=O)CC)OCCO2 | inconclusive: 39.8 µM [inhibitor, single point]
O=C(Nc1ccc(Cl)cc1)N[C@@H]1c2c(ccc3ccccc23)OC[C@@H]1CO | inactive
CCOc1ccc(-n2c([S-])c(C(=O)Nc3ccc(S(=O)(=O)N4CCOCC4)cc3)[n+]3cc(C(N)=O)ccc23)cc1 | inconclusive: 39.8 µM [inhibitor, single point]
Cc1cccc(-n2c(=O)c3c(n4cnnc24)-c2ccccc2CC32CCCCC2)c1 | inactive
N#CCSc1nc(Nc2ccc3c(c2)OCO3)c2ccccc2n1 | inactive
CCC(C)(C)n1nnnc1C(c1cc2cc(C)cc(C)c2[nH]c1=O)N1CCCC1 (centres undefined) | inconclusive: 22.4 µM [inhibitor, partial curve]
COc1ccc(N(CC(O)Cn2c3ccccc3c3ccccc32)S(=O)(=O)c2ccccc2)cc1 (centres undefined) | inconclusive: 39.8 µM [inhibitor, single point]
C=C(C(C)=O)C(O)c1ccc(C(F)(F)F)cc1 (centres undefined) | inactive
O=c1oc2c(CN3CCOCC3)c(O)ccc2c2c1CCC2 | inconclusive: 25.1 µM [inhibitor, partial curve]
CCOc1cccc(/C=N/NC(=S)Nc2ccccc2[N+](=O)[O-])c1O | inconclusive: 39.8 µM [inhibitor, single point]
O=C(Nc1ccc2oc(-c3ccccc3)nc2c1)c1ccccc1F | inconclusive: 31.6 µM [inhibitor, single point]
Cc1ccc(-c2ccc(=O)n(CC(=O)NCCCN3CCCCC3)n2)cc1 | inconclusive: 35.5 µM [inhibitor, single point]
Cc1ccc(CNS(=O)(=O)c2ccc(C(C)(C)C)cc2)n1C | inactive
CC(=O)c1cccc(NC(=O)Nc2cnn(Cc3ccc(Cl)cc3Cl)c2)c1 | inactive
CS(=O)(=O)Nc1ccc(Br)cc1C(=O)c1ccccc1 | inactive
O=C(Oc1ccc(/C=N/Nc2nc(N3CCCCC3)nc(N3CCCCC3)n2)cc1)c1ccco1 | inconclusive: 1.78 µM [inhibitor, full curve, poor fit]
